Assay results: publication PMC12136788
Some of the results follow.

T1: UNK ZnF1-3 (human, UniProt Q9C0B0 31-174)
T1 sequence: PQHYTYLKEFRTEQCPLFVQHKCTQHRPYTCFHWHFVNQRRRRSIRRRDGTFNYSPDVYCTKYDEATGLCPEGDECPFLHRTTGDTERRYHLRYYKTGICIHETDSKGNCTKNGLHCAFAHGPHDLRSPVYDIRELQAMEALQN

B1: 243354648_243354768_771_3pUTR_ENSG00000143702_ENST00000366542|human|control|control (ssRNA)
RNA: GGGAGUUCUACAGUCCGACGAUCUGAAUAGUGCUUUCUGUUAUUUGUGAUGGUUGCUGGAAUUCUUUUGUAGGGAUUUCAAAAUAACUUGGUUCCCUACAGAAAGGAAAAAGUACUUCUUCAUUUGCAGCUGCAGAUUGUUCCCAACAGAGGAUUGAGCAUCA
B2: chr7:141445308:141445309:+_ENSG00000106028_ENST00000265304|hu_hu|hu_hu_hu_mus_False|28_38 (ssRNA)
RNA: GGGAGUUCUACAGUCCGACGAUCUAUGAUUGUUGUUGCUUGCCGCCUCACAUUGUUUUUAUCCAUGUACUCGCCAUAGUCCACUUUCCCUUCCACAUAAAUUCGAGACCCCUUUUUCACAUACUGAUAUGCCACAUCUCUGAGCAACAGAGGAUUGAGCAUCA
B3: chr8:74585381:74585382:-_ENSG00000040341_ENST00000355780|hu_mus|FALSE|FALSE (ssRNA)
RNA: GGGAGUUCUACAGUCCGACGAUCGGGCAUUGGGCAAUGAUACCUCUGAUUGUACAUGCCCCGGAAGUUGUAGUUAGCUCUAUAAUUUGGGAAUGGCUUUGGAUCUAGUGGCCUGUAGAUGGCAGGCUCUCCCCUUUUCAUAGCCAACAGAGGAUUGAGCAUCA
B4: chr3:176740097:176740098:-_ENSG00000177565_ENST00000430069|hu_mus|hu_hu_hu_mus_True|1_48 (ssRNA)
RNA: GGGAGUUCUACAGUCCGACGAUCUGUUUUGUAUACCACAAAAGGAGGCACUUUCAGUAUCUGCAAAAGGUGUUUAGUCCUAAAACAUACUUACCUAGAGGAUAACUCAGGAAAACAAUCUGUUACACUCUAAGACCUUAGGAACAACAGAGGAUUGAGCAUCA
B5: 72189914_72190034_5342_CDS_ENSG00000066933_ENST00000356056|human|control|control (ssRNA)
RNA: GGGAGUUCUACAGUCCGACGAUCUUUUGAAAUGCGAUUAUUUGAGAGUUUACAGGCUACAUUCAGCUGGGUGCCCAUUCUGUCUGUCUUGGAUAAUUCCUUGACAGUACUAGAUUGGCAUGGACUUCCUUUUCUUUCAAAGAACAACAGAGGAUUGAGCAUCA
B6: chr1:75481486:75481487:+_ENSMUSG00000051703_ENSMUST00000113575|mus_hu|FALSE|FALSE (ssRNA)
RNA: GGGAGUUCUACAGUCCGACGAUCGGGGCCUGAGCAGGCUGUCAGAGGUCCCCGGGACCCAUACUCAUAGUCCGCAUCUGUGGGUGAGGCCAUGAAGGAGCUCAGGGAGCUCCCGGUCUGCCGGUCUCGGAAGCUCUGGAUAUACAACAGAGGAUUGAGCAUCA

What follows are binders tested against T1, UNK ZnF1-3 (assay: nsRBNS (natural sequence RNA bind-n-seq); RBNS binding buffer (assumed for nsRBNS): 25 mM Tris pH 7.5, 150 mM KCl, 3 mM MgCl2, 0.01% Triton X-100, 500 ug/ml BSA, 20 U/ml SUPERase-In, 4 C; UNK is unkempt and MSI1 is Musashi-1; names of the RNAs are library labels; protein concentration not given here; high values mean tight binding).

Row | Binder | binding signal
1 | B1 | 0.633 enrichment R
2 | B2 | 0.632 enrichment R
3 | B3 | 0.72 enrichment R
4 | B4 | 0.759 enrichment R
5 | B5 | 0.459 enrichment R
6 | B6 | 1.85 enrichment R
